# Measurements as given in the supplement of paper PMC8728848.
# The list shows a part of the results.
# B1: HPAIIITrx (Helix pomatia), Q1KM18 (protein)
# chain: MLFVTIISLGLLAIVHGQCALKTIAFSAAIDREQTFDANQVVIYDIVITNHGNAYDNSTGLFTAPVDGMYSFQLNLLTIKEKEGWLELVHNGQLKVSVYAKQDSTYDSSSNSVIIKMKEGDRVNVRAHKKSGLFGRDDELYNTFSGHFLSGL
# Key:
# Assay in all cases: glycan array binding signal (z-score within array); higher = stronger binding
# Conditions in all cases: glycan notation: IUPAC condensed, linker removed
# [1] = biological target: GlcNAc(b1-3)Gal(b1-4)GlcNAc(b1-3)Gal(b1-4)GlcNAc(b1-3)Gal(b1-4)GlcNAc(b1-3)Gal(b1-4)GlcNAc(b1-2)Man(a1-3)[GlcNAc(b1-3)Gal(b1-4)GlcNAc(b1-3)Gal(b1-4)GlcNAc(b1-3)Gal(b1-4)GlcNAc(b1-3)Gal(b1-4)GlcNAc(b1-2)Man(a1-6)]Man(b1-4)GlcNAc(b1-4)GlcNAc
# Procedure, shortened: (§1)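 Glycan array data came from 3228 arrays in the Consortium for Functional Glycomics database, and only arrays with an available protein sequence were kept. Glycan names were put into IUPAC-condensed notation, and columns mapping to the same glycan were averaged. The binding signal is a within-array Z-score, averaged across arrays of one protein sequence run at different concentrations or buffers and across linkers. A negative Z-score can be read as non-binding.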
# [2] = biological target: GlcNAc(b1-3)Gal(b1-4)GlcNAc(b1-3)Gal(b1-4)GlcNAc(b1-3)Gal(b1-4)GlcNAc(b1-3)Gal(b1-4)GlcNAc(b1-2)Man(a1-3)[GlcNAc(b1-3)Gal(b1-4)GlcNAc(b1-3)Gal(b1-4)GlcNAc(b1-3)Gal(b1-4)GlcNAc(b1-3)Gal(b1-4)GlcNAc(b1-2)Man(a1-6)]Man(b1-4)GlcNAc(b1-4)[Fuc(a1-6)]GlcNAc
# Procedure, shortened: as §1
# [3] = biological target: GlcNAc(b1-3)Gal(b1-4)GlcNAc(b1-3)Gal(b1-4)GlcNAc(b1-3)Gal(b1-4)GlcNAc(b1-3)Gal(b1-4)GlcNAc(b1-2)[GlcNAc(b1-3)Gal(b1-4)GlcNAc(b1-3)Gal(b1-4)GlcNAc(b1-3)Gal(b1-4)GlcNAc(b1-3)Gal(b1-4)GlcNAc(b1-6)]Man(a1-6)[GlcNAc(b1-3)Gal(b1-4)GlcNAc(b1-3)Gal(b1-4)GlcNAc(b1-3)Gal(b1-4)GlcNAc(b1-3)Gal(b1-4)GlcNAc(b1-2)Man(a1-3)]Man(b1-4)GlcNAc(b1-4)[Fuc(a1-6)]GlcNAc
# Procedure, shortened: as §1
# [4] = biological target: GlcNAc(b1-3)Gal(b1-4)GlcNAc(b1-3)Gal(b1-4)GlcNAc(b1-3)GalNAc
# Procedure, shortened: as §1
# [5] = biological target: GlcNAc(b1-3)Gal(b1-4)GlcNAc(b1-3)GalNAc
# Procedure, shortened: as §1
# [6] = biological target: GlcNAc(b1-3)Gal(b1-4)GlcNAc(b1-3)[GlcNAc(b1-3)Gal(b1-4)GlcNAc(b1-3)]GalNAc
# Procedure, shortened: as §1
# [7] = biological target: GlcNAc(b1-3)Gal(b1-4)GlcNAc(b1-6)[Gal(b1-3)]GalNAc
# Procedure, shortened: as §1
# [8] = biological target: GlcNAc(b1-3)Gal(b1-4)GlcNAc(b1-6)[GlcNAc(b1-3)Gal(b1-3)]GalNAc
# Procedure, shortened: as §1
# [9] = biological target: GlcNAc(b1-3)Gal(b1-4)GlcNAc(b1-6)[GlcNAc(b1-3)]Gal(b1-4)GlcNAc
# Procedure, shortened: as §1
# GlcNAc(b1-3)GalNAc = biological target: GlcNAc(b1-3)GalNAc
# Procedure, shortened: as §1
# GlcNAc(b1-3)Man = biological target: GlcNAc(b1-3)Man
# Procedure, shortened: as §1
# [10] = biological target: GlcNAc(b1-3)[GlcNAc(b1-4)][GlcNAc(b1-6)]GlcNAc
# Procedure, shortened: as §1
# [11] = biological target: GlcNAc(b1-3)[GlcNAc(b1-6)]Gal(b1-4)GlcNAc
# Procedure, shortened: as §1
# [12] = biological target: GlcNAc(b1-3)[GlcNAc(b1-6)]GalNAc
# Procedure, shortened: as §1
# [13] = biological target: GlcNAc(b1-4)Gal(b1-4)GlcNAc
# Procedure, shortened: as §1
# GlcNAc(b1-4)GlcNAc = biological target: GlcNAc(b1-4)GlcNAc
# Procedure, shortened: as §1
# [14] = biological target: GlcNAc(b1-4)GlcNAc(b1-4)GlcNAc
# Procedure, shortened: as §1
# [15] = biological target: GlcNAc(b1-4)GlcNAc(b1-4)GlcNAc(b1-4)GlcNAc(b1-4)GlcNAc
# Procedure, shortened: as §1
# [16] = biological target: GlcNAc(b1-4)GlcNAc(b1-4)GlcNAc(b1-4)GlcNAc(b1-4)GlcNAc(b1-4)GlcNAc
# Procedure, shortened: as §1
# [17] = biological target: GlcNAc(b1-4)[GlcNAc(b1-6)]GalNAc
# Procedure, shortened: as §1
# [18] = biological target: GlcNAc(b1-6)Gal(b1-4)GlcNAc
# Procedure, shortened: as §1
# GlcNAc(b1-6)GalNAc = biological target: GlcNAc(b1-6)GalNAc
# Procedure, shortened: as §1
# GlcNAc3Prop(b1-4)GlcNAc = biological target: GlcNAc3Prop(b1-4)GlcNAc
# Procedure, shortened: as §1
# [19] = biological target: GlcNAc6S(b1-3)Gal(b1-4)GlcNAc
# Procedure, shortened: as §1
# Kdn(a2-3)Gal(b1-3)GalNAc = biological target: Kdn(a2-3)Gal(b1-3)GalNAc
# Procedure, shortened: as §1
# Kdn(a2-3)Gal(b1-3)GlcNAc = biological target: Kdn(a2-3)Gal(b1-3)GlcNAc
# Procedure, shortened: as §1
# Kdn(a2-3)Gal(b1-4)Glc = biological target: Kdn(a2-3)Gal(b1-4)Glc
# Procedure, shortened: as §1
# Kdn(a2-3)Gal(b1-4)GlcNAc = biological target: Kdn(a2-3)Gal(b1-4)GlcNAc
# Procedure, shortened: as §1
# [20] = biological target: Kdn(a2-3)Gal(b1-4)[Fuc(a1-3)]GlcNAc
# Procedure, shortened: as §1
# Kdn(a2-6)Gal(b1-4)GlcNAc = biological target: Kdn(a2-6)Gal(b1-4)GlcNAc
# Procedure, shortened: as §1
# [21] = biological target: Man(a1-2)Man(a1-2)Man(a1-3)Man
# Procedure, shortened: as §1
# [22] = biological target: Man(a1-2)Man(a1-2)Man(a1-6)[Man(a1-3)]Man
# Procedure, shortened: as §1
# Man(a1-2)Man(a1-3)Man = biological target: Man(a1-2)Man(a1-3)Man
# Procedure, shortened: as §1
# [23] = biological target: Man(a1-2)Man(a1-3)[Man(a1-2)Man(a1-6)]Man
# Procedure, shortened: as §1
# [24] = biological target: Man(a1-2)Man(a1-3)[Man(a1-2)Man(a1-6)]Man(a1-6)[Man(a1-2)Man(a1-2)Man(a1-3)]Man
# Procedure, shortened: as §1
# [25] = biological target: Man(a1-2)Man(a1-3)[Man(a1-2)Man(a1-6)]Man(a1-6)[Man(a1-2)Man(a1-2)Man(a1-3)]Man(b1-4)GlcNAc(b1-4)GlcNAc
# Procedure, shortened: as §1
# [26] = biological target: Man(a1-2)Man(a1-3)[Man(a1-6)]Man(a1-6)[Man(a1-2)Man(a1-3)]Man(b1-4)GlcNAc(b1-4)GlcNAc
# Procedure, shortened: as §1
# [27] = biological target: Man(a1-2)Man(a1-6)[Man(a1-3)]Man(a1-6)[Man(a1-2)Man(a1-2)Man(a1-3)]Man
# Procedure, shortened: as §1
# [28] = biological target: Man(a1-2)Man(a1-6)[Man(a1-3)]Man(a1-6)[Man(a1-2)Man(a1-2)Man(a1-3)]Man(b1-4)GlcNAc(b1-4)GlcNAc
# Procedure, shortened: as §1
# Man(a1-3)[Man(a1-6)]Man = biological target: Man(a1-3)[Man(a1-6)]Man
# Procedure, shortened: as §1
# [29] = biological target: Man(a1-3)[Man(a1-6)]Man(a1-6)[Man(a1-2)Man(a1-3)]Man(b1-4)GlcNAc(b1-4)GlcNAc
# Procedure, shortened: as §1
# [30] = biological target: Man(a1-3)[Man(a1-6)]Man(a1-6)[Man(a1-3)]Man
# Procedure, shortened: as §1
# [31] = biological target: Man(a1-3)[Man(a1-6)]Man(a1-6)[Man(a1-3)]Man(b1-4)GlcNAc(b1-4)GlcNAc
# Procedure, shortened: as §1
# [32] = biological target: Man(a1-3)[Man(a1-6)]Man(b1-4)GlcNAc(b1-4)GlcNAc
# Procedure, shortened: as §1
# [33] = biological target: Man(a1-3)[Man(a1-6)]Man(b1-4)GlcNAc(b1-4)[Fuc(a1-6)]GlcNAc
# Procedure, shortened: as §1
binder,measurement,setting,value
B1,glycan array binding signal (z-score),[1],-0.324
same,glycan array binding signal (z-score),[2],-0.474
same,glycan array binding signal (z-score),[3],-0.316
same,glycan array binding signal (z-score),[4],0.103
same,glycan array binding signal (z-score),[5],-0.383
same,glycan array binding signal (z-score),[6],-0.43
same,glycan array binding signal (z-score),[7],-0.382
same,glycan array binding signal (z-score),[8],-0.321
same,glycan array binding signal (z-score),[9],-0.043
same,glycan array binding signal (z-score),GlcNAc(b1-3)GalNAc,-0.285
same,glycan array binding signal (z-score),GlcNAc(b1-3)Man,-0.062
same,glycan array binding signal (z-score),[10],-0.121
same,glycan array binding signal (z-score),[11],-0.288
same,glycan array binding signal (z-score),[12],-0.329
same,glycan array binding signal (z-score),[13],-0.43
same,glycan array binding signal (z-score),GlcNAc(b1-4)GlcNAc,-0.063
same,glycan array binding signal (z-score),[14],-0.266
same,glycan array binding signal (z-score),[15],-0.175
same,glycan array binding signal (z-score),[16],-0.011
same,glycan array binding signal (z-score),[17],-0.465
same,glycan array binding signal (z-score),[18],-0.309
same,glycan array binding signal (z-score),GlcNAc(b1-6)GalNAc,-0.243
same,glycan array binding signal (z-score),GlcNAc3Prop(b1-4)GlcNAc,-0.558
same,glycan array binding signal (z-score),[19],-0.334
same,glycan array binding signal (z-score),Kdn(a2-3)Gal(b1-3)GalNAc,-0.152
same,glycan array binding signal (z-score),Kdn(a2-3)Gal(b1-3)GlcNAc,-0.428
same,glycan array binding signal (z-score),Kdn(a2-3)Gal(b1-4)Glc,0.214
same,glycan array binding signal (z-score),Kdn(a2-3)Gal(b1-4)GlcNAc,-0.318
same,glycan array binding signal (z-score),[20],-0.136
same,glycan array binding signal (z-score),Kdn(a2-6)Gal(b1-4)GlcNAc,-0.263
same,glycan array binding signal (z-score),[21],0.469
same,glycan array binding signal (z-score),[22],-0.141
same,glycan array binding signal (z-score),Man(a1-2)Man(a1-3)Man,-0.321
same,glycan array binding signal (z-score),[23],-0.53
same,glycan array binding signal (z-score),[24],-0.433
same,glycan array binding signal (z-score),[25],0.127
same,glycan array binding signal (z-score),[26],-0.25
same,glycan array binding signal (z-score),[27],-0.205
same,glycan array binding signal (z-score),[28],-0.111
same,glycan array binding signal (z-score),Man(a1-3)[Man(a1-6)]Man,-0.152
same,glycan array binding signal (z-score),[29],0.784
same,glycan array binding signal (z-score),[30],-0.183
same,glycan array binding signal (z-score),[31],-0.342
same,glycan array binding signal (z-score),[32],-0.14
same,glycan array binding signal (z-score),[33],-0.393
